In PubChem BioAssay AID588453 (National Center for Advancing Translational Sciences (NCATS), 2011):
“And” between values parts separate entries of the source, which are not always exact repeats. Equal entries are not always repeated. The whole screen tested about 390,000 compounds, of which about 4,000 (1%) were called active. Inconclusive results, whose numbers are uncertain, are shown with a selection of clear calls. Calls follow the shape of the dose curve; as a rule, active = well fitted inhibition curve with a large enough effect; inconclusive = small, poorly fitted or top-dose-only effect; inactive = no such curve, though single readings can be large or run the other way. Potencies beside an inconclusive call are fits to weak or partial responses and may not hold up.

Each compound was assayed against Thioredoxin reductase 1, cytoplasmic (Rattus norvegicus) (UniProt O89049) (assay: qHTS Assay for Inhibitors of Mammalian Selenoprotein Thioredoxin Reductase 1 (TrxR1): qHTS). Details: recombinant rTrxR1, NADPH fluorescence consumption, selenite substrate; series mostly up to 114 µM; activity change, negative = inhibition: at the top concentration.
Method in brief: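 Rat TrxR1 (90 nM in the dispensed reagent) was pre-reduced with 400 uM NADPH for 5 min at room temperature, then incubated with compound for 15 min. After 400 uM selenite was added, NADPH fluorescence (Ex 340/Em 450 nm) was followed for 8 min.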
% is scaled to controls: 0 for no effect and ±100 for the full control effect; potency is read from the fitted curve at half-maximal effect; tags tell the direction and shape of the fitted curve.
Also: nearly all actives have a fitted effect of over 65% in size.

Sequence of UniProt O89049 (O89049 whole entry, looked up): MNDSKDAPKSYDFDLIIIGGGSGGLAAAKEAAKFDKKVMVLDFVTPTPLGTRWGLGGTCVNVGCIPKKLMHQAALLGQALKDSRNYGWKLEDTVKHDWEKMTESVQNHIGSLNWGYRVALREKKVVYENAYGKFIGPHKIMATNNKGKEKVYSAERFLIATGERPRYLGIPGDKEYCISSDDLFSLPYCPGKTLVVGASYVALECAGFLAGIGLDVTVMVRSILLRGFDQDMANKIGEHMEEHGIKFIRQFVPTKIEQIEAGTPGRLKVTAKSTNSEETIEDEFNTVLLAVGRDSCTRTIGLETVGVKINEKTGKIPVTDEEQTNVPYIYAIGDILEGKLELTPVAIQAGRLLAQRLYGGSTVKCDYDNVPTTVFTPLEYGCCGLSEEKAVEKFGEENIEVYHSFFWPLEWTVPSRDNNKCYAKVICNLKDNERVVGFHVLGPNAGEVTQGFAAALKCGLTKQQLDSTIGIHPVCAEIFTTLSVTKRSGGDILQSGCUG

SMILES	Potency	activity change, negative = inhibition
O=C1NC(=O)C(=Cc2coc3ccc(O)cc3c2=O)C(=O)N1	inconclusive: 17.8 µM [inhibitor, full curve, poor fit]	
CC(=O)Nc1ccc2c(c1)CC1(C(=O)N(C)C(=O)N(C)C1=O)C1CCCN21 (centres undefined)	inconclusive: 20 µM [inhibitor, single point]	
CCOC(=O)c1c(C)n(Cc2ccccc2)c2ccc(O)cc12		inactive: 40.8% [at 57.1 µM]
O=C1NC(=O)N(c2cccc(Cl)c2)C(=O)/C1=C\c1ccc(Sc2nc3ccccc3[nH]2)o1	active: 8.91 µM	
C[n+]1ccc(-c2cc[n+](C)cc2)cc1	inconclusive: 63.1 µM [inhibitor, partial curve, poor fit]	
O=C(NC1(C(F)(F)F)Oc2ccccc2O1)N1CCC2(CC1)OCCO2	inconclusive: 11.2 µM [inhibitor, full curve]	
COc1cc(C(c2c(C)[nH]n(-c3ccccc3)c2=O)c2c(C)[nH]n(-c3ccccc3)c2=O)cc(OC)c1OC	inconclusive: 8.91 µM [inhibitor, partial curve]	
O=C1NC(=O)N(Cc2ccco2)C(=O)/C1=C\c1ccc(-c2ccc(F)cc2)o1	inconclusive: 15.8 µM [inhibitor, partial curve]	
COc1cc(C=C2C(=O)NC(=O)NC2=O)ccc1O	inconclusive: 17.8 µM [inhibitor, full curve]	
CC(O)C(C)OC(=O)[C@@H]1C[C@@H]2c3cccc4c3c(cn4C(C)C)C[C@H]2N(C)C1 (some centres undefined)	inconclusive: 0.126 µM [inhibitor, full curve, poor fit]	
CCOP(=O)(OCC)c1nc(-c2cccc3ccccc23)oc1N1CCOCC1	inconclusive: 39.8 µM [inhibitor, single point]	
O=C1NC(=O)N(Cc2ccccc2)C(=O)/C1=C\C=C\c1ccco1	inconclusive: 11.2 µM [inhibitor, partial curve]	
COc1ccc2[nH]c(C)c(CCNCc3cccnc3)c2c1	inconclusive: 63.1 µM [inhibitor, partial curve, poor fit]	
Clc1cccc(C2NCc3ccccc3-n3cccc32)c1 (centres undefined)	inconclusive: 56.2 µM [inhibitor, single point]	
[Cl][Pt+2][Cl].[NH-]C1CCCCC1[NH-] (centres undefined)	inconclusive: 0.251 µM [inhibitor, full curve, poor fit]	
CN(C)c1ccc(C=C2C(=O)NC(=O)NC2=O)cc1[N+](=O)[O-]	inconclusive: 25.1 µM [inhibitor, single point]	
O=C(c1cc2ccccc2oc1=O)N1CCC2(CC1)OCCO2	inconclusive: 70.8 µM [inhibitor, partial curve]	
COC1CC(C)C(OC)c2cc(O)cc(c2O)NC(=O)C(C)=CC=CC(C)C(OC(N)=O)C(C)=CC(C)C1OC (centres undefined)	inconclusive: 3.16 µM [inhibitor, partial curve]	
COc1ccc(N2C(=O)NC(=O)/C(=C\c3ccc([N+](=O)[O-])s3)C2=O)cc1	active: 25.1 µM	
N#CC1=C(N)Oc2n[nH]c(-c3cccs3)c2C1c1ccco1 (centres undefined)	inconclusive: 56.2 µM [inhibitor, partial curve, poor fit]	

SMILES	Potency	activity change, negative = inhibition
CNCC[C@H](Oc1cccc2ccccc12)c1cccs1	inconclusive: 50.1 µM [inhibitor, partial curve]	
COc1cccc(CNC(=O)CSc2ccc(-c3ccco3)nn2)c1	inconclusive: 15.8 µM [inhibitor, single point]	
COC(=O)C1=C(c2ccc(-c3ccccc3)c(F)c2)C[C@@H]2CC[C@H]1N2C(=O)N1CCC(O)CC1		inactive: 15.2%
O=P(c1ccccc1)(c1ccccc1)N1CCCCC1		inactive: 5.36% [at 57.1 µM]
CCOC(=O)N1C(C)CN(/[N+]([O-])=N/Oc2ccc([N+](=O)[O-])cc2[N+](=O)[O-])CC1C (centres undefined)	active: 25.1 µM	
C[C@]12CC[C@H]3C(=CCc4cc(O)ccc43)[C@@H]1CCC2=O	inconclusive: 28.2 µM [inhibitor, full curve]	
O=C1NC(=O)N(CCC2=CCCCC2)C(=O)/C1=C\c1cccs1	active: 7.08 µM	
CCCCN1C(=O)NC(=O)/C(=C/c2cnc(SC)nc2)C1=O	inconclusive: 8.91 µM [inhibitor, partial curve, poor fit]	
COc1ccc(N2C(=O)CC(N3CCC(n4c(=O)[nH]c5ccccc54)CC3)C2=O)cc1 (centres undefined)	inconclusive: 28.2 µM [inhibitor, single point]	
NC1CCc2cc(O)c(O)cc2C1 (centres undefined)	inconclusive: 29.9 µM [inhibitor, partial curve] and inconclusive: 2.12 µM [inhibitor, full curve]	
O=C1CN=C(c2ccccc2Cl)c2cc(Cl)ccc2N1Cc1cccc(Cl)c1		inactive: 25.8% [at 57.1 µM]
CN(C)CCC=C1c2ccccc2CCc2ccccc21	inconclusive: 28.2 µM [inhibitor, partial curve, poor fit]	
CC(C)NS(=O)(=O)c1ccc(OCC(=O)N2CCN(Cc3ccc4c(c3)OCO4)CC2)c(Cl)c1		inactive: -13.8% [at 57.1 µM]
COc1ccc(N2C(=O)/C(=C/c3cc(C)n(-c4ccc(C)cn4)c3C)C(=O)NC2=S)c(OC)c1	inconclusive: 35.5 µM [inhibitor, full curve]	
CC(=O)N1CCN(CCN=Cc2c(O)n(-c3ccc(C)cc3)c(=S)[nH]c2=O)CC1	inconclusive: 89.1 µM [inhibitor, partial curve, poor fit]	
S=C1CN=C(c2ccccc2)c2cc(Cl)ccc2N1	inconclusive: 3.16 µM [inhibitor, partial curve, poor fit]	
C=CCN1CC[C@@]2(C)c3cc(O)ccc3CC1[C@@H]2C	inconclusive: 0.168 µM [inhibitor, full curve]	
COc1ccc2c(c1)CCC1C2CC[C@@]2(C)C1CC[C@@H]2NCCCCCCN1C(=O)C=CC1=O (some centres undefined)	inconclusive: 1.06 µM [inhibitor, full curve, poor fit]	
COC(=O)CCC(=O)Nc1sc(Cc2ccccc2)c(C)c1C(N)=O	inconclusive: 15.8 µM [inhibitor, partial curve]	
CN[C@H](CC(C)C)C(=O)N[C@H]1C(=O)N[C@@H](CC(N)=O)C(=O)N[C@H]2C(=O)N[C@H]3C(=O)N[C@H](C(=O)N[C@H](C(=O)O)c4cc(O)cc(O)c4-c4cc3ccc4O)[C@H](O)c3ccc(c(Cl)c3)Oc3cc2cc(c3O[C@@H]2O[C@H](CO)[C@@H](O)[C@H](O)[C@H]2O[C@H]2C[C@](C)(N)[C@H](O)[C@H](C)O2)Oc2ccc(cc2Cl)[C@H]1O	inconclusive: 2.38 µM [inhibitor, partial curve, poor fit]	

SMILES	Potency	activity change, negative = inhibition
CCOc1ccc(N=Cc2c(O)n(C(C)(C)C)c(=O)[nH]c2=O)cc1	inconclusive: 39.8 µM [inhibitor, single point]	
CN1C(=O)/C(=C\c2ccc(N3CCCCC3)o2)C(=O)NC1=S		inactive: -12.1% [at 57.1 µM]
CCCCC/C=C\C/C=C\C/C=C\C/C=C\CCCC(=O)NCC(=O)O	inconclusive: 29.9 µM [inhibitor, single point] and inconclusive: 23.8 µM [inhibitor, partial curve]	
O=c1[nH]c(=S)n(-c2cccc(Cl)c2)c(O)c1/C=N/N1CCOCC1	inconclusive: 89.1 µM [inhibitor, partial curve, poor fit]	
O=C1CC(=O)N(c2cccc(Cl)c2)C(=O)N1	inconclusive: 11.2 µM [inhibitor, single point]	
CCOC(=O)C(NC(=O)CCl)(Nc1ccc(C(O)(C(=O)OCC)C(F)(F)F)cc1)C(F)(F)F (centres undefined)	inconclusive: 22.4 µM [inhibitor, full curve]	
COC(=O)C1=C(c2ccc(F)cc2OCc2ccccc2)C[C@@H]2CC[C@H]1N2C(=O)NCc1ccc(OC)cc1		inactive: 13.5%
CCN(CC)C(=O)c1c(C)[nH]c(=S)c(C#N)c1-c1ccco1	inconclusive: 3.98 µM [inhibitor, full curve]	
O=c1[nH]c(=O)n(Cc2ccco2)c(O)c1C=NCc1ccco1	inconclusive: 8.91 µM [inhibitor, partial curve, poor fit]	
Cc1ccc(C(=O)NC(=S)NNS(=O)(=O)c2ccc(C)cc2)cc1	inconclusive: 22.4 µM [inhibitor, full curve]	
COc1ccc(CC2NCC(O)C2OC(C)=O)cc1 (centres undefined)	active: 25.1 µM	
CC1=NNC(=O)C1C(c1ccc(F)cc1)C(C#N)C#N (centres undefined)	inconclusive: 50.1 µM [inhibitor, partial curve, poor fit]	
O=c1[nH]c(=S)n(Cc2ccco2)c(O)c1C=NCc1cccs1	inconclusive: 11.2 µM [inhibitor, partial curve, poor fit]	
Oc1ccc2c3c1O[C@H]1[C@@H](O)CC[C@@]4(O)C(C2)N(CC2CCC2)CCC314 (some centres undefined)	inconclusive: 39.8 µM [inhibitor, single point]	
O=c1c2ccccc2nc2n1CCS2(=O)=O	inconclusive: 50.1 µM [inhibitor, partial curve]	
C=C1C(=O)OC2C1CCC(C)C1(O)C=CC(=O)C21C (centres undefined)	inconclusive: 70.8 µM [inhibitor, single point]	
O=C(/C=C/c1ccc(Cl)cc1)NC(=S)N1C[C@H]2C[C@H](C1)c1cccc(=O)n1C2		inactive: -4.88% [at 57.1 µM]
Clc1cccc(/C=N\Nc2nccs2)c1	inconclusive: 70.8 µM [inhibitor, single point]	
Cc1cccc(-n2c(O)c(C=NCCCN3CCOCC3)c(=O)[nH]c2=O)c1C	inconclusive: 56.2 µM [inhibitor, partial curve]	
